Results taken from article PMC4336329 (PLoS ONE, 2015).
Hit rate of the full screen: of about 310,000 compounds, about 14,000 (4.5%) showed an effect of 50% or more. Effects have a minus sign here. The list shows a part of the results.

Target: human ether-à-go-go-related gene (hERG) potassium channel (human, UniProt Q12809)
Assay: primary screen, population patch clamp on CHO cells stably expressing hERG
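Also: peak tail current of the secondary pulse compared with the same well before compound.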

Chain of human ether-à-go-go-related gene (hERG) potassium channel (Q12809 whole entry, looked up): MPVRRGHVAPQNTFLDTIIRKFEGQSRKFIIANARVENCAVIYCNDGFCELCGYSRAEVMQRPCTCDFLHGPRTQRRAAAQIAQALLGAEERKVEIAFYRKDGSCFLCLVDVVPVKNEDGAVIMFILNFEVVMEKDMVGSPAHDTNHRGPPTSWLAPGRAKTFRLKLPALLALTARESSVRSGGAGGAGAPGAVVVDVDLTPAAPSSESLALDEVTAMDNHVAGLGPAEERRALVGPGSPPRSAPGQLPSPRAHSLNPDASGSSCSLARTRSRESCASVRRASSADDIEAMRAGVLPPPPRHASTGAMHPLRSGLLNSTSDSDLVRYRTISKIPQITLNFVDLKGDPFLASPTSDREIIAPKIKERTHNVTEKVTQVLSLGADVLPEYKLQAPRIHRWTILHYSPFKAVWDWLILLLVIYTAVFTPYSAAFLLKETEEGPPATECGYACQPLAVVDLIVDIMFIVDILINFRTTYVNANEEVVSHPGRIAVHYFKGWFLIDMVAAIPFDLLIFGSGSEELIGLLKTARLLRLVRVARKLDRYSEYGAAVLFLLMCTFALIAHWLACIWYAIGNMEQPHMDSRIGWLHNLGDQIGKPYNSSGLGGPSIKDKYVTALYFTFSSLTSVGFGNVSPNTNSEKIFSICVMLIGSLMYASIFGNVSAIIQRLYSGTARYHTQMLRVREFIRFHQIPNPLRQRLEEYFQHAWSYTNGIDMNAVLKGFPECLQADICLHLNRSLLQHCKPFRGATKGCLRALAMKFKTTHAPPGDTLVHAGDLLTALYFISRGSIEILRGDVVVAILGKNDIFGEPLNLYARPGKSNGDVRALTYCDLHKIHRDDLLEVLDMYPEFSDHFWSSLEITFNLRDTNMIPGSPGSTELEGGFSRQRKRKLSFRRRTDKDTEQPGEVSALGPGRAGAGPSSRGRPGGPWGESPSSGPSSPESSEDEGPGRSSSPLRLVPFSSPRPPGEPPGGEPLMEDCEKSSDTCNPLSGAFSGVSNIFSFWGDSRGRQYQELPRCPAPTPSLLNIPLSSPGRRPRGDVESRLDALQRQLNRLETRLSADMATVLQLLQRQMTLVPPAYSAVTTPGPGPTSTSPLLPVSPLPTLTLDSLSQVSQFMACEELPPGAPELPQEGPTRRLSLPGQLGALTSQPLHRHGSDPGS

Compound	hERG current change (%, negative = inhibition) at 10uM [%]
NS(=O)(=O)c1ccc(NC(=O)CSc2ncccn2)cc1	8.6
Nc1c(N2CCN(c3ccccc3)CC2)c2ccccc2oc1=O	-50.1
O=C(Nn1c(O)c(C=C2N=c3ccccc3=N2)sc1=S)c1ccccc1Cl	2.54
O=S(=O)(NCc1ccccc1)c1ccccc1Br	-7.71
N#C/C(=C\c1c(Oc2ccc(Cl)cc2)nc2ccccn2c1=O)C(=O)NC1CCS(=O)(=O)C1 (centres unmarked)	-16.9
COc1cc(C(=O)NC2CCCc3ccccc32)ccc1OCC(=O)Nc1ccc(F)cc1 (centres unmarked)	11.3
CCN(CC(=O)Nc1ccc2c(c1)OCCO2)C(=O)c1cc(=O)[nH]c2ccccc12	3.21
COc1ccc(CCNCc2ccccn2)cc1OC	0.278
COc1ccccc1CNC(=O)CSc1nc2nc(C)cc(C)n2n1	-3.37
O=C(CCc1nnc2ccc(NCc3ccccc3Cl)nn12)N1CCC2(CC1)OCCO2	-67.7
CC(C)CC1COC(=O)N1 (centres unmarked)	3.03
O=C1CC(Nc2ccc(N3CCOCC3)cc2)C(=O)N1c1ccccc1F (centres unmarked)	0.895
COc1ccc(C(=O)COC(=O)CCn2nnc(-c3cccs3)n2)cc1	10.6
CCc1nnc(NC(=O)c2sc3nc4c(cc3c2N)CCCCC4)s1	-12.1
CSc1ncccc1C(=O)OCC(=O)c1ccccc1	35
CCc1cc(C(=O)N2CCN(S(=O)(=O)c3ccc(Cl)cc3)CC2)sc1C	10.3
Cc1nc(CCN2C(=O)c3ccccc3C2=O)cs1	1.17
O=C1CC(Nc2ccccc2)C(=O)N1c1ccc(N2CCOCC2)cc1 (centres unmarked)	1.75
CCN(CC)c1ccc(C2C3CCCCC3(O)CCN2CC(=O)Nc2ccccc2)cc1 (centres unmarked)	-6.69
CC(C)Cc1nc(S(=O)(=O)c2ccc(Cl)cc2)c(N2CCOCC2)o1	-6.14
O=C(/C=C/c1ccccc1Cl)NCCc1ccccc1	-12.5
COCCCn1c(-c2cccc(Cl)c2)nc2c1c(=O)[nH]c(=O)n2Cc1ccccc1	-0.77
Cc1cc(C)c(OCC(=O)OCC(=O)N2c3ccccc3CC2C)c(C)c1 (centres unmarked)	21.3

Compound	hERG current change (%, negative = inhibition) at 10uM [%]
CCn1c(=O)c(C(C)=O)c(O)c2ccccc21	14.3
COc1ccccc1NC(=O)C1CCCN(c2nc(C)cc(C)n2)C1 (centres unmarked)	-10
O=C(N/N=C/c1coc2ccccc2c1=O)c1ccc(Cl)cc1	21.7
Fc1ccc(-c2cnn3c(-c4ccncc4)ccnc23)cc1	2.27
Cc1cc(N2CC(C)OC(C)C2)nc2ccccc12 (centres unmarked)	-31.2
Cc1ccc(-c2n[nH]c(=O)c3ccccc23)cc1S(N)(=O)=O	2.43
CC(OC(=O)C1CCN(S(=O)(=O)c2ccc(Cl)cc2)CC1)C(=O)N1CCc2ccccc21 (centres unmarked)	-16.4
CCOc1ccc(S(=O)(=O)NCCC(=O)NCCOc2ccccc2OC)cc1	-5.42
O=c1oc2c(-c3ccc([N+](=O)[O-])cc3)cc(O)cc2s1	11.3
CC(Sc1nnnn1-c1ccc(O)cc1)C(=O)NNC(=O)c1ccc(F)cc1 (centres unmarked)	3.52
CC(C)c1nnc(NC(=O)c2ccc3ccccc3c2)s1	2.94
Cc1ccc(C(=O)Nc2ccc(F)cc2)cc1NC1=NC2CS(=O)(=O)CC2S1 (centres unmarked)	13.5
COn1c(-c2ccccc2)c(C=O)c2ccccc21	-2.59
Nc1ccc(S(=O)(=O)NC2=NCCCCC2)cc1N	3.36
C(=N\n1cnnc1)/c1cccc(Oc2ccccc2)c1	1.09
CCNC(=O)/C(C#N)=C/c1c(N2CCN(c3ccccc3)CC2)nc2ccccn2c1=O	-66.3
Cc1cc(F)ccc1NC(=O)c1cc(S(=O)(=O)N2CCOCC2)cn1C	-27.9
COCC(=O)N1CCC(Oc2ccc(C(=O)NCc3cc(C)n(C)n3)cc2)CC1	3.38
COc1ccc(N2CCN(CC(=O)NC(C)c3ccccc3)CC2)cc1 (centres unmarked)	20.6
O=C(O)C1CCCCN1C(=O)c1cc2c(s1)CCCCC2 (centres unmarked)	-6.95
COc1ccc(C(=O)NN=C2CCCC2)cc1	-7.28
O=C(COC(=O)c1ccccc1Cl)NCCC1=CCCCC1	8.14
CN1CCN(C(=O)C2CC(c3c(F)cccc3Cl)=NO2)CC1 (centres unmarked)	-1.24

Compound	hERG current change (%, negative = inhibition) at 10uM [%]
Cc1cc(C)c(C)c(OCCNCc2ccccc2)c1.O=C(O)C(=O)O	-5.47
CC(=O)N1CCC2(CC1)C(C#N)=C(N)OC1=C2C(=O)CC(C)(C)C1	8.09
COc1ccc(-c2noc(-c3ccccc3-c3ccccc3)n2)cc1	-9.86
COc1ccc(C(=O)Nc2nnc(C(F)(F)F)s2)cc1	68.7
Cn1c(=O)c2c(nc(CN3CCN(Cc4ccccc4)CC3)n2Cc2ccc(Cl)cc2)n(C)c1=O	-68
Cc1occc1C(=O)Nc1ccc2ccccc2c1	-1.51
COc1ccc(N2CCN(C(c3ccc4ncccc4c3)c3nnnn3C(C)C)CC2)cc1 (centres unmarked)	-51.7
Cc1onc(-c2ccccc2)c1C(=O)c1c[nH]c(C(=O)NCCCN2CCOCC2)c1	2.7
Nc1nc(SCC(=O)Nc2ccc(F)cc2)[nH]c(=O)c1NC(=O)c1ccc(F)c(F)c1	18.3
O=C(OCc1cccs1)c1ccccc1NS(=O)(=O)c1ccc2c(c1)OCCO2	13.6
O=c1cc(-c2cccc(Br)c2)nc(-c2ccccc2F)o1	9.64
COc1ccc(-n2cnc3scc(-c4ccc(OC)c(OC)c4)c3c2=O)cc1	6.63
O=C(NCc1n[nH]c(=S)n1-c1ccc(F)cc1)c1ccco1	5.03
COc1ccccc1OCC(=O)Nc1ccccc1C(=O)N1CCCC1	3.22
CNC(=O)CSc1nnc(-c2cnccn2)n1C	30.6
O=C(Cn1c(COc2ccccc2)nc2ccccc21)Nc1cccc(Cl)c1	15.6
Cc1ccc(-c2c(CC(=O)O)c(C)nc3sc4c(c23)CCCC4)cc1.Cl	11.4
CCOC(=O)CNC(=O)N1CCCC(C(=O)c2cc(C)c(OC)c(C)c2)C1 (centres unmarked)	9.16
Cc1ccc(Oc2ccc(NC(=O)CCC(=O)OCC(=O)c3cccs3)cc2)cc1C	5.02
O=S(=O)(c1ccc(Cl)cc1)N1CCC(O)(c2cccnc2)CC1	-17.9
CC(C)C(OC(=O)CN1C(=O)c2ccccc2C1=O)C(=O)NC1CCCC1 (centres unmarked)	18.7
COc1ccccc1OCc1ccc(C(=O)NCc2cccnc2)o1	-1.34
O=C(CC1CC2CCC1C2)OCC(=O)c1c[nH]c2ccccc12 (centres unmarked)	-1.4

Compound	hERG current change (%, negative = inhibition) at 10uM [%]
O=C(NCC(c1cccs1)N1CCc2ccccc21)c1ccccc1 (centres unmarked)	15.3
Cc1csc2ncc(C(=O)NCc3ccccc3Cl)c(=O)n12	-25.4
CC(Sc1nnc(COc2ccc([N+](=O)[O-])cc2)n1-c1ccccc1)C(=O)O (centres unmarked)	-3.35
COc1c(C)cc(C(=O)C2CCCN(C(=O)c3ccc4cc[nH]c4c3)C2)cc1C (centres unmarked)	-5.66
COc1ccc(-n2c(=S)[nH]c3cc(C(=O)NCCCN4CCCC4=O)ccc3c2=O)cc1OC	21.1
CN(C)/C=C(\C#N)C(=O)N/N=C/c1ccccc1	-0.643
Cc1oc(-c2ccccc2Cl)nc1CN1CCCCC1c1cccnc1 (centres unmarked)	-9.92
COc1ccc(OC)c(NC(=O)Cn2cc(C#N)c3ccccc32)c1	0.565
CCOC(=O)c1c(N)sc(C(=O)Nc2ccccc2F)c1C	19.5
COc1ccc(N(CC(O)Cn2c(C)nc3ccccc32)S(=O)(=O)c2ccccc2)cc1 (centres unmarked)	4.8
Cc1ccc(/C=C/c2nc3ccccc3[nH]2)o1	14.5
COc1cc(OC)c(C2=NOC(C(=O)Nc3c(C)nn(CC(=O)N4CCCC4)c3C)C2)cc1Cl (centres unmarked)	-16.3
CCCc1cc(=O)[nH]c(SCC(=O)Nc2sc3c(c2C#N)CCCC3)n1	-25.7
CCC1CCCCN1C(=O)COC(=O)c1n[nH]c2ccccc12 (centres unmarked)	-14.1
Cc1ccc(NC(=O)c2sc3nc(C)cc(C)c3c2N)cc1	5.38
O=C(Nc1ccc(Br)cn1)c1cccc2c1-c1ccccc1C2=O	21.6
Cc1ccc(-n2ncc3c(N4CCN(c5ccc(F)cc5)CC4)ncnc32)c(C)c1	0.188
O=C(NCCCN1CCCC1=O)Nc1ccc(Cl)cc1	2.13
OC1CCN(c2cc(-c3ccccc3)nc3cc(-c4ccc(F)cc4)nn23)CC1	4.64
COc1ccc(NC(=O)CSCC(=O)NCc2cccc(C(F)(F)F)c2)cc1	3.42
